# Experimental data published in PubChem BioAssay AID493208 (National Center for Advancing Translational Sciences (NCATS), 2011).
# The campaign covered roughly 44,000 compounds. About 340 (0.77%) were called active. About 5% were inconclusive and are not listed. Calls come from the whole dose curve; as a rule, active = well fitted inhibition curve with a large enough effect; inconclusive = small, poorly fitted or top-dose-only effect; inactive = flat fitted curve, though single readings scatter. Some of the results follow.
# Assay: Acumen qHTS Assay for Inhibitors of the mTORC1 Signaling Pathway in MEF (Tsc2-/-, p53-/-) Cells: Sytravon;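 note: plate controls were DMSO for no effect and rapamycin for full effect; nearly all actives have a fitted effect of over 50% in size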
# Conditions: phospho-rpS6 immunofluorescence/PI, 24 h; series mostly up to 38.3 µM; activity change, negative = inhibition: at the top concentration
# In short: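 Read-out: phospho-S6 Alexa-488 intensity over PI intensity per well, scored as % active cells using thresholds from rapamycin (7.5 nM) and DMSO controls. Tsc2-/-, p53-/- MEFs exposed to compound for 24 h; PI cell count recorded as viability.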
row,SMILES,"activity change, negative = inhibition"
1,COc1cccc(NC(=O)CCSc2nc(-c3ccco3)cc(C(F)(F)F)n2)c1,inactive: -20.2%
2,COc1ccc(-c2noc(N3CCN(c4ccc(Cl)cc4)CC3)n2)cc1OC,inactive: 2.16%
3,CCc1nn2c(=O)cc(COC(=O)c3cccc(NC(=O)COc4ccccc4)c3)nc2s1,inactive: 6.87%
4,CCOc1ccccc1NC(=O)C(=O)c1cc(C)n(-c2cccc(C)c2C)c1C,inactive: -12.8%
5,CC(C)Cc1nn2c(=O)cc(COC(=O)c3ccccc3NC(=O)c3cccs3)nc2s1,inactive: 0%
6,COc1ccccc1NC(=O)C1=C(C)Nc2nc(SCc3ccccc3F)nn2C1c1ccncc1 (centres undefined),inactive: -5.36%
7,Cc1cccc(NC(=O)C2CCN(S(=O)(=O)c3ccc4[nH]c5c(c4c3)CCCCC5)CC2)c1,inactive: -1.61%
8,Cc1cc(C)cc(NC(=O)Cn2cc(C(=O)c3ccncc3)c(=O)c3cc(C)c(C)cc32)c1,inactive: -6.42%
9,CCc1cccc(C)c1NC(=O)C1CCN(c2nnc(C)c3c(C)n(-c4ccccc4)nc23)CC1,inactive: 0%
10,COc1ccc(CNC(=O)C2CCN(S(=O)(=O)c3ccc4nc5c(c(C(=O)O)c4c3)CCCC5)CC2)cc1,inactive: -1.39%
11,CCCCCn1c(=O)[nH]c2cc(C(=O)N3CCN(c4cccc(Cl)c4)CC3)ccc2c1=O,inactive: -14.9%
12,CN(c1ccccc1)S(=O)(=O)c1nnc(NC(=O)c2ccco2)s1,inactive: -4.75%
13,Cc1ccccc1NC(=O)c1cc2sccc2n1Cc1ccc(F)cc1,inactive: -1.52%
14,COc1ccc(OC)c(CNC(=O)c2cc(S(=O)(=O)N3CCC(C)CC3)cn2C)c1,inactive: -2.3%
15,COc1cc2oc(=O)c(CC(=O)NCCc3ccccc3)c(C)c2cc1Cl,inactive: 0.524%
16,CCOC(=O)CCn1c(=O)c2cccn2c2cccnc21,inactive: -2.27%
17,CSc1nn(Cc2ccccc2C)c(NC(C)=O)c1S(=O)(=O)c1ccc(C)cc1,inactive: -3.6%
18,COCCN1Cc2cccc(C(=O)Nc3ccc(C(=O)OC)cc3)c2C1=O,inactive: 0.764%
19,Cc1cc2cc(CCNS(=O)(=O)c3ccc(Br)cc3)c(=O)[nH]c2cc1C,inactive: 2.65%
20,Cc1ccc(NC(=O)c2cc(S(=O)(=O)N3CCC(C)CC3)cn2C)cc1Cl,inactive: -2.7%
21,COc1ccccc1C(=O)Nc1ccc2nc(SCC(=O)N3CCCC3)sc2c1,inactive: -0.265%
22,Cc1ccc2nc(-c3ccsc3)c(Nc3ccc(C(C)C)cc3)n2c1,inactive: 0.342%
23,COCCNC(=O)CCCn1c(SCC(=O)c2ccc(F)cc2)nc2c(sc3ccccc32)c1=O,inactive: 1.95%
24,Cc1ccc(NC(=O)/C(C#N)=C\c2ccc(-c3ccc(Cl)cc3)o2)c(C)c1,inactive: 6.47%

row,SMILES,"activity change, negative = inhibition"
1,CCc1ccc(NC(=O)C(=O)NCCc2csc(-c3cccc(F)c3)n2)cc1,inactive: -9.06%
2,Cc1ccc(C)c(Nc2nnc(-c3ccc(C)c(S(=O)(=O)N4CCN(C)CC4)c3)c3ccccc23)c1,inactive: -9.77%
3,CCOc1ccc(NC(=O)CSc2oc(-c3cccs3)nc2S(=O)(=O)c2ccc(C)cc2)cc1,inactive: 0%
4,CCn1nc(C)c2c(-c3ccccc3)cc(=O)n(C(C)C(=O)Nc3cccc(F)c3)c21 (centres undefined),inactive: -3.69%
5,Cc1ccc(C2=CC(c3ccccc3C)n3c(nc4ccccc43)N2)cc1 (centres undefined),inactive: -7.02%
6,Cc1ccn2c(Nc3ccccc3C)c(-c3ccc(N4CCOCC4)cc3)nc2c1,inactive: -0.974%
7,O=C(COc1ccc(Cl)cc1)NCC(c1ccco1)S(=O)(=O)c1ccccc1 (centres undefined),inactive: -2.45%
8,COc1ccccc1NC(=O)c1sc2nc3c(c(C(F)(F)F)c2c1N)CN(C(C)=O)CC3,inactive: -13.1%
9,Cc1ccccc1CCNC(=O)c1ccc(NC(=O)N2CC(C)Sc3ccccc32)cc1 (centres undefined),inactive: -9.17%
10,Cc1nn(-c2ccc(N3CCOCC3)nn2)c(C)c1CCC(=O)NCc1ccccc1,inactive: -12.1%
11,COc1ccc(N2CCN(C(=O)C3CCN(Cc4nc(-c5ccc(Cl)cc5)oc4C)CC3)CC2)cc1,inactive: -11.2%
12,CN(C)CCNC(=O)CN1N=C(c2ccccc2)CCC1=O,inactive: -23.1%
13,C=C(C)Cn1c(=O)c2c(nc3n2CCN3c2cc(C)cc(C)c2)n(C)c1=O,inactive: 3.95%
14,COc1cc(C2C(=O)N(C3CCCCCC3)CC(=O)N2Cc2ccccc2)ccc1OC(C)C (centres undefined),inactive: 3.33%
15,COC(=O)c1ccc(NC(=O)CN(Cc2ccccc2)S(=O)(=O)c2ccc(C)cc2)cc1,inactive: 1.31%
16,COc1ccc(CNc2nc(-c3ccc(OC)cc3)cc(C(F)(F)F)n2)cc1,inactive: -2.7%
17,CCCC(=O)N1CCc2cc(OC)c(OC)cc2C1COc1ccc2c(C)cc(=O)oc2c1 (centres undefined),inactive: -10.7%
18,COc1ccc2c(c1)CC(C(=O)NCCN1CCN(c3ccccc3F)CC1)CO2 (centres undefined),inactive: 1.37%
19,CCOc1ccc(NC(=O)Cn2cc(C(=O)c3ccc(CC)cc3)c(=O)c3cc4c(cc32)OCO4)cc1,inactive: -0.945%
20,Cc1ccc(Cl)cc1N1CCN(C(=O)c2cnn(C(C)(C)C)c2C2CCN(C(=O)OC(C)(C)C)CC2)CC1,inactive: -3.76%
21,CCCSc1ncc(Cl)c(C(=O)Nc2ccc(S(=O)(=O)N3CCC(C)CC3)cc2)n1,inactive: -6.84%
22,CCC(Sc1ncc(S(=O)(=O)c2ccc(C)cc2)c(=O)[nH]1)C(=O)Nc1cc(C)ccc1C (centres undefined),inactive: -4.27%
23,CCc1ccc(NC(=O)CN2CCN(C3CCCCC3)C(=O)C2=O)cc1,inactive: 0%
24,O=C(Nc1c(C(=O)c2ccc(Cl)cc2)oc2ccccc12)c1cc(=O)c2ccccc2o1,inactive: 4.08%

row,SMILES,"activity change, negative = inhibition"
1,CCN(C(=O)CSc1nc2ccccc2n1Cc1ccc(C(=O)OC)cc1)c1ccccc1,inactive: 0%
2,CCc1nc2ccc(C(=O)NCc3ccc(N(C)C)cc3)cc2nc1CC,inactive: -0.296%
3,Cc1ccc2oc(=O)c(S(=O)(=O)c3ccc(F)cc3)cc2c1,inactive: -3.02%
4,COc1ccc(NC(=O)c2ccco2)cc1NC(=O)c1ccc(C)c(C)c1,inactive: -12%
5,COc1ccc(CCN2C(=O)NC(NC(=O)c3ccccc3OC)(C(F)(F)F)C2=O)cc1OC (centres undefined),inactive: 1.29%
6,Cc1cccc(C)c1Nc1c(-c2ccc(N3CCOCC3)cc2)nc2ncccn12,inactive: -0.101%
7,CCN(CC)CCN(C(=O)c1ccco1)c1nc2c(C)c(C)ccc2s1,inactive: -6.42%
8,CNC(=O)c1c(NC(=O)c2cc(=O)c3cc(C)c(C)cc3o2)sc2c1CCCC2,inactive: 2.78%
9,Cc1ccc(CSCCC(=O)N2CCN(c3ccc(F)cc3)CC2)cc1,inactive: -26.4%
10,COc1ccccc1CNC(=O)Cn1c(-c2ccc(F)cc2)cc(C(C)=O)c1C,inactive: 0.26%
11,O=C(Cn1nc(Cc2ccncc2)c2ccccc2c1=O)Nc1cccc(C(F)(F)F)c1,inactive: -13%
12,COc1ccc(N2CCN(C(=O)CN3CCSc4ccccc43)CC2)cc1,inactive: 0.532%
13,CCn1c(=O)cc(OCC(=O)N2CCN(c3ccc(C(C)=O)cc3)CC2)c2ccccc21,inactive: -1.25%
14,CN(C(=O)c1c[nH]c2ccc(S(=O)(=O)Nc3cccc(C(F)(F)F)c3)cc2c1=O)C1CCCCC1,inactive: 0.214%
15,Cc1ccc(-c2cc(C(F)(F)F)n3nc(-c4cccc(Br)c4)cc3n2)cc1,inactive: -4.1%
16,CC(=O)Nc1ccc(NC(=O)CN2C(=O)CC(c3ccco3)Sc3ccccc32)cc1 (centres undefined),inactive: 1.3%
17,COc1ccccc1NC(=O)c1nn(C)c2c1CS(=O)(=O)c1ccccc1-2,inactive: 0.236%
18,CN(C)S(=O)(=O)c1ccc(C(=O)NCCSc2c(-c3ccc(Br)cc3)[nH]c3ccccc23)cc1,inactive: 2.88%
19,CCCCNC(=O)CC1Nc2cc(C)c(C)cc2NC1=O (centres undefined),inactive: -1.96%
20,Cc1c(Cl)cccc1N1CCn2c1nc1c2c(=O)n(CC(=O)O)c(=O)n1C,inactive: 4.17%
21,COc1ccc(Cl)cc1NC(=O)Nc1c[nH]c(=O)[nH]c1=O,inactive: 0%
22,O=C(NCCc1ccc(Cl)cc1)c1nnc(Cc2ccc(F)cc2)o1,inactive: -6.4%
23,Cc1ccc(NC(=O)C2CCCN(c3ncnc4onc(C)c34)C2)c(Cl)c1 (centres undefined),inactive: -4.33%
24,O=C(CCSCc1ccc(Cl)cc1)NCCc1ccccc1,inactive: -20.2%

row,SMILES,"activity change, negative = inhibition"
1,CCCCc1ccc(Nc2cc(C)nc(-n3nc(C)cc3C)n2)cc1,inactive: 1.65%
2,O=C(Nc1ccc(-c2nc3ccccc3o2)c(O)c1)c1cc(Cl)ccc1Cl,inactive: 3.92%
3,COc1cc(OC)cc(C(=O)Nc2ccc3nc4c(c(Nc5ccc(OC)c(OC)c5)c3c2)CCCC4)c1,inactive: 0%
4,O=C(NCC(c1cccnc1)N1CCc2ccccc2C1)C(=O)Nc1ccccc1F (centres undefined),inactive: 2.17%
5,CCN(C(=O)CCS(=O)(=O)c1ccc2c(c1)CCN2C(C)=O)c1cccc(C(F)(F)F)c1,inactive: 4.03%
6,CCN1CCc2c(sc(NC(=O)c3ccc(S(=O)(=O)N(C)C4CCCCC4)cc3)c2C(N)=O)C1,inactive: 5.01%
7,CC1Cc2cc(S(=O)(=O)CCC(=O)Nc3ccc(F)cc3)ccc2N1C(=O)C1CC1 (centres undefined),inactive: 1.6%
8,O=C(/C=C\c1ccc2c(c1)OCO2)NC1CC(=O)N(c2ccccc2)C1 (centres undefined),inactive: -4.51%
9,CSc1ccc(CNC(=O)Cn2c(-c3cccs3)cc3cc(F)ccc32)cc1,inactive: -19.5%
10,COc1cc(C(=O)N2CCNC(=O)C2CC(=O)Nc2ccc(C)c(C)c2)cc(OC)c1OC (centres undefined),inactive: 0.11%
11,Cc1ccccc1-c1nnc(SCC(=O)N(C)c2ccccc2)o1,inactive: -7.13%
12,CCCCNc1nc2c(-c3cccc(C)c3)nnn2c2ccccc12,inactive: -17.6%
13,Cc1ccc(/C=C/c2onc(C)c2S(=O)(=O)N2CCC(C(=O)Nc3ccc(OC(F)(F)F)cc3)CC2)cc1,inactive: -5.56%
14,COC(=O)c1ccc(NC(=O)Cn2ccn3nc(-c4ccc(OC)cc4)cc3c2=O)cc1,inactive: 13.8%
15,Cc1ccc(CNC(=O)CCc2c(C)nc3c(-c4ccc(F)cc4)c(C)nn3c2C)cc1,inactive: -6.89%
16,COc1ccc2c(c1)c1c(c(=O)n(-c3ccccc3C)c(=O)n1CC(N)=O)n2C,inactive: -11%
17,Cc1cccc(OCC(=O)Nc2cccc(C(=O)OCc3cc(=O)n4nc(C(C)C)sc4n3)c2)c1,inactive: 0.477%
18,Cc1ccc(S(=O)(=O)Nc2cc3c(C(=O)OCc4ccccc4)c(C)oc3c3ccccc23)c(C)c1,inactive: 0.312%
19,CCc1sc(Nc2cccc(Cl)c2)nc1-c1cc2cccc(OC)c2oc1=O,inactive: -9.39%
20,Cc1c(C(=O)OCc2ccccc2)[nH]c2c1C(=O)CC(c1ccc(N(C)C)cc1)C2 (centres undefined),inactive: 0.635%
21,Cc1nn2c3c(cnc2c1-c1ccc(Cl)cc1)C(=O)CC(c1ccc(C(C)C)cc1)C3 (centres undefined),inactive: 3.97%
22,COc1ccc(NC(=O)CN2C(=O)C(C)(C)c3cc(S(=O)(=O)N4CCCCC4)ccc32)cc1Cl,inactive: -14.9%
